# Data taken from the supplement of paper PMC8728848.
# The list shows a part of the results.
# Tests used:
# Test in all cases: glycan array binding signal (z-score within array); higher = stronger binding
# Conditions in all cases: glycan notation: IUPAC condensed, linker removed
# [1] = biological target: Gal(b1-3)[Fuc(a1-4)]GlcNAc(b1-3)Gal(b1-4)GlcNAc
# Summary of the method: (§1)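 Columns mapping to the same glycan were averaged after glycan names were converted to IUPAC-condensed notation. The data come from 3228 arrays in the Consortium for Functional Glycomics database, limited to those with an available protein sequence. Binding is reported as a within-array Z-score averaged across arrays of one protein sequence and across linkers.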
# [2] = biological target: Gal(b1-3)[Fuc(a1-4)]GlcNAc(b1-3)Gal(b1-4)[Fuc(a1-3)]GlcNAc
# Summary of the method: as §1
# [3] = biological target: Gal(b1-3)[GlcNAc(b1-6)]GalNAc
# Summary of the method: as §1
# [4] = biological target: Gal(b1-3)[Neu5Ac(a2-6)]GalNAc
# Summary of the method: as §1
# [5] = biological target: Gal(b1-3)[Neu5Ac(a2-6)]GlcNAc(b1-6)Gal(b1-4)Glc
# Summary of the method: as §1
# [6] = biological target: Gal(b1-3)[Neu5Ac(b2-6)]GalNAc
# Summary of the method: as §1
# [7] = biological target: Gal(b1-4)Gal
# Summary of the method: as §1
# [8] = biological target: Gal(b1-4)GalNAc(a1-3)[Fuc(a1-2)]Gal(b1-4)GlcNAc
# Summary of the method: as §1
# [9] = biological target: Gal(b1-4)GalNAc(b1-3)[Fuc(a1-2)]Gal(b1-4)GlcNAc
# Summary of the method: as §1
# [10] = biological target: Gal(b1-4)Glc
# Summary of the method: as §1
# [11] = biological target: Gal(b1-4)Glc6S
# Summary of the method: as §1
# [12] = biological target: Gal(b1-4)GlcNAc
# Summary of the method: as §1
# [13] = biological target: Gal(b1-4)GlcNAc(a1-6)Gal(b1-4)GlcNAc
# Summary of the method: as §1
# [14] = biological target: Gal(b1-4)GlcNAc(b1-2)Man
# Summary of the method: as §1
# [15] = biological target: Gal(b1-4)GlcNAc(b1-2)Man(a1-3)Man(b1-4)GlcNAc(b1-4)GlcNAc
# Summary of the method: as §1
# [16] = biological target: Gal(b1-4)GlcNAc(b1-2)Man(a1-3)[Gal(b1-4)GlcNAc(b1-2)Man(a1-6)]Man(b1-4)GlcNAc(b1-4)GlcNAc
# Summary of the method: as §1
# [17] = biological target: Gal(b1-4)GlcNAc(b1-2)Man(a1-3)[Gal(b1-4)GlcNAc(b1-2)Man(a1-6)]Man(b1-4)GlcNAc(b1-4)[Fuc(a1-6)]GlcNAc
# Summary of the method: as §1
# [18] = biological target: Gal(b1-4)GlcNAc(b1-2)Man(a1-3)[Gal(b1-4)GlcNAc(b1-2)][GlcNAc(b1-4)]Man(b1-4)GlcNAc(b1-4)GlcNAc
# Summary of the method: as §1
# [19] = biological target: Gal(b1-4)GlcNAc(b1-2)Man(a1-3)[GlcNAc(b1-2)Man(a1-6)]Man(b1-4)GlcNAc(b1-4)GlcNAc
# Summary of the method: as §1
# [20] = biological target: Gal(b1-4)GlcNAc(b1-2)Man(a1-3)[Man(a1-6)]Man(b1-4)GlcNAc(b1-4)GlcNAc
# Summary of the method: as §1
# [21] = biological target: Gal(b1-4)GlcNAc(b1-2)Man(a1-6)Man(b1-4)GlcNAc(b1-4)GlcNAc
# Summary of the method: as §1
# [22] = biological target: Gal(b1-4)GlcNAc(b1-2)Man(a1-6)[GlcNAc(b1-2)Man(a1-3)]Man(b1-4)GlcNAc(b1-4)GlcNAc
# Summary of the method: as §1
# [23] = biological target: Gal(b1-4)GlcNAc(b1-2)Man(a1-6)[Man(a1-3)]Man(b1-4)GlcNAc(b1-4)GlcNAc
# Summary of the method: as §1
# [24] = biological target: Gal(b1-4)GlcNAc(b1-2)[Gal(b1-4)GlcNAc(b1-4)]Man(a1-3)[Gal(b1-4)GlcNAc(b1-2)Man(a1-6)]Man(b1-4)GlcNAc(b1-4)GlcNAc
# Summary of the method: as §1
# [25] = biological target: Gal(b1-4)GlcNAc(b1-2)[Gal(b1-4)GlcNAc(b1-4)]Man(a1-3)[Gal(b1-4)GlcNAc(b1-2)[Gal(b1-4)GlcNAc(b1-6)]Man(a1-6)]Man(b1-4)GlcNAc(b1-4)GlcNAc
# Summary of the method: as §1
# [26] = biological target: Gal(b1-4)GlcNAc(b1-2)[Gal(b1-4)GlcNAc(b1-4)]Man(a1-3)[GlcNAc(b1-4)][Gal(b1-4)GlcNAc(b1-2)Man(a1-6)]Man(b1-4)GlcNAc(b1-4)GlcNAc
# Summary of the method: as §1
# [27] = biological target: Gal(b1-4)GlcNAc(b1-2)[Gal(b1-4)GlcNAc(b1-4)]Man(a1-3)[GlcNAc(b1-4)][Gal(b1-4)GlcNAc(b1-2)[Gal(b1-4)GlcNAc(b1-6)]Man(a1-6)]Man(b1-4)GlcNAc(b1-4)GlcNAc
# Summary of the method: as §1
# [28] = biological target: Gal(b1-4)GlcNAc(b1-2)[Gal(b1-4)GlcNAc(b1-6)]Man(a1-6)[Gal(b1-4)GlcNAc(b1-2)Man(a1-3)]Man(b1-4)GlcNAc(b1-4)GlcNAc
# Summary of the method: as §1
# [29] = biological target: Gal(b1-4)GlcNAc(b1-2)[Gal(b1-4)GlcNAc(b1-6)]Man(a1-6)[GlcNAc(b1-4)][Gal(b1-4)GlcNAc(b1-2)Man(a1-3)]Man(b1-4)GlcNAc(b1-4)GlcNAc
# Summary of the method: as §1
# [30] = biological target: Gal(b1-4)GlcNAc(b1-3)Gal(b1-3)GlcNAc
# Summary of the method: as §1
# [31] = biological target: Gal(b1-4)GlcNAc(b1-3)Gal(b1-4)Glc
# Summary of the method: as §1
# [32] = biological target: Gal(b1-4)GlcNAc(b1-3)Gal(b1-4)GlcNAc
# Summary of the method: as §1
# [33] = biological target: Gal(b1-4)GlcNAc(b1-3)Gal(b1-4)GlcNAc(b1-3)Gal(b1-4)GlcNAc
# Summary of the method: as §1
# [34] = biological target: Gal(b1-4)GlcNAc(b1-3)Gal(b1-4)[Fuc(a1-3)GlcNAc(b1-6)]Gal(b1-4)Glc
# Summary of the method: as §1
# [35] = biological target: Gal(b1-4)GlcNAc(b1-3)Gal(b1-4)[Fuc(a1-3)]GlcNAc(b1-3)Gal(b1-4)[Fuc(a1-3)]GlcNAc
# Summary of the method: as §1
# [36] = biological target: Gal(b1-4)GlcNAc(b1-3)GalNAc
# Summary of the method: as §1
# [37] = biological target: Gal(b1-4)GlcNAc(b1-3)[Gal(b1-4)GlcNAc(b1-6)]Gal(b1-4)GlcNAc
# Summary of the method: as §1
binder,measurement,setting,value
"UEA-I (Ulex europaeus), P22972 (protein) SDDLSFKFKNFSQNGKDLSFQGDASVIETGVLQLNKVGNNLPDETGGIARYIAPIHIWNCNTGEVASFITSFSFFMETSANPKAATDGLTFFLAPPDSPLRRAGGYFGLFEDTKDNDSSYQTVAVEFDTIGSPVNFDDPGFPHIGIDVNRVKSINAERWNKRYGLNNVANVEIIYEASSKTLTASLTYPSDQTSISVTSIVDLKEILPEWVSVGFSGGTYIGRQATHEVLNWYFTSNLIN",glycan array binding signal (z-score),[1],-0.182
same,glycan array binding signal (z-score),[2],-0.181
same,glycan array binding signal (z-score),[3],-0.183
same,glycan array binding signal (z-score),[4],-0.184
same,glycan array binding signal (z-score),[5],-0.185
same,glycan array binding signal (z-score),[6],-0.19
same,glycan array binding signal (z-score),[7],-0.178
same,glycan array binding signal (z-score),[8],-0.182
same,glycan array binding signal (z-score),[9],-0.18
same,glycan array binding signal (z-score),[10],-0.176
same,glycan array binding signal (z-score),[11],-0.174
same,glycan array binding signal (z-score),[12],-0.181
same,glycan array binding signal (z-score),[13],-0.187
same,glycan array binding signal (z-score),[14],-0.174
same,glycan array binding signal (z-score),[15],-0.176
same,glycan array binding signal (z-score),[16],-0.17
same,glycan array binding signal (z-score),[17],-0.174
same,glycan array binding signal (z-score),[18],-0.185
same,glycan array binding signal (z-score),[19],-0.183
same,glycan array binding signal (z-score),[20],-0.186
same,glycan array binding signal (z-score),[21],-0.181
same,glycan array binding signal (z-score),[22],-0.181
same,glycan array binding signal (z-score),[23],-0.178
same,glycan array binding signal (z-score),[24],-0.189
same,glycan array binding signal (z-score),[25],-0.175
same,glycan array binding signal (z-score),[26],-0.173
same,glycan array binding signal (z-score),[27],-0.165
same,glycan array binding signal (z-score),[28],-0.124
same,glycan array binding signal (z-score),[29],-0.176
same,glycan array binding signal (z-score),[30],-0.181
same,glycan array binding signal (z-score),[31],-0.174
same,glycan array binding signal (z-score),[32],-0.185
same,glycan array binding signal (z-score),[33],-0.188
same,glycan array binding signal (z-score),[34],-0.169
same,glycan array binding signal (z-score),[35],-0.19
same,glycan array binding signal (z-score),[36],-0.179
same,glycan array binding signal (z-score),[37],-0.181
